From publication PMC7819943, “Rice protein-binding microarrays: a tool to detect cis-acting elements near promoter regions in rice”
The list shows a part of the results.

biological target: T1, OsWOX13 (Oryza sativa, UniProt Q5QMM3 1-267); test: protein-binding microarray (RPBM); PBS, 2% BSA, 51.3 ng/ul salmon testes DNA, 50 uM zinc acetate, 200 nM TF, 25 C, 1 h; high values mean tight binding; conditions: protein: recombinant; tags: N-terminal polyhistidine and DsRed monomer fusion (pET32a); label: CyDye5-dUTP incorporated in the synthesized complementary strand; 3' TTTTT single-stranded linker to array surface; dsDNA, one strand shown
T1 sequence: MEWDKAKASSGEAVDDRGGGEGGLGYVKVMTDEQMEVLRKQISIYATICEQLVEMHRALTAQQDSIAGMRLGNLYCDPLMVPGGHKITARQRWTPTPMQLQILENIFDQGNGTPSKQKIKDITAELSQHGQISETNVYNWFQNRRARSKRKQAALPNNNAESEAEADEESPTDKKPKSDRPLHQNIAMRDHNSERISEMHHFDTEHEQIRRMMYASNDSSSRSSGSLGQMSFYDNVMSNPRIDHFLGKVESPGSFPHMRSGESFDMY
How it was run: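 Per-feature fluorescence intensity (arbitrary units), read on an Axon 4000B scanner, is the binding signal. Transcription factors carrying an N-terminal polyhistidine tag and DsRed fusion were expressed in E. coli BL21-CodonPlus and purified on Ni–NTA. A custom Agilent array, made double-stranded by primer extension with Cy5-dUTP and blocked with 2% BSA, was incubated with 200 nM protein in PBS, 2% BSA, salmon testes DNA and 50 µM zinc acetate at 25 °C for 1 h and then washed.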

Sequence	binding signal
TAGACAAGGAATGACACAGATAATTGTTACCCTGGAAGCACGGAGTCACCTAGTGCAG	3760 fluorescence intensity (a.u.)
TCTAGGTATTACTCTATTTAAATTGGAATAAAGGCTCATTCGGAGTCACCTAGTGCAG	3440 fluorescence intensity (a.u.)
TTAACTAGTTACTTTGTTTAATTGATATAATTCTATTTACCGGAGTCACCTAGTGCAG	6070 fluorescence intensity (a.u.)
ATGTACTTAATTCAATTTGTCAAAAGAATTATGTATCCCTCGGAGTCACCTAGTGCAG	3990 fluorescence intensity (a.u.)
ATAGGTATTAATGAATTTAGACATATGGAGTACTTGGCAGCGGAGTCACCTAGTGCAG	4130 fluorescence intensity (a.u.)
AAATAAATTAAAATCCCATCATTAATTAGTAATCTTTACGCGGAGTCACCTAGTGCAG	37500 fluorescence intensity (a.u.)
ATTGACGAAGTTGACTAGAAACCACTGAGGCCATTTGGATCGGAGTCACCTAGTGCAG	4650 fluorescence intensity (a.u.)
GCATGATGGAGATTCTAATCCAAGGGAAACAACAATTAGACGGAGTCACCTAGTGCAG	5340 fluorescence intensity (a.u.)
CTTAATTGTTCACCGATTAAGGGTCACAAATTAGATTCGGCGGAGTCACCTAGTGCAG	39600 fluorescence intensity (a.u.)
TAAATTTAATCTAATGGTGTAAAATAATGGGTCCACAAATCGGAGTCACCTAGTGCAG	4200 fluorescence intensity (a.u.)
ACATGATGATTGATGAATGATCTAATCAACCCAGTCACATCGGAGTCACCTAGTGCAG	48300 fluorescence intensity (a.u.)
CGGATTCCAATCAAATTTGGACCCGCCAAATGCACTCGGACGGAGTCACCTAGTGCAG	17900 fluorescence intensity (a.u.)
CTTTGTTCTGATTAATTACAAGTTACTAGTATATCCTAGGCGGAGTCACCTAGTGCAG	22200 fluorescence intensity (a.u.)
CCAACGAATCAACCCAGAAGTTGGTGGTAGAATTAACTAACGGAGTCACCTAGTGCAG	6720 fluorescence intensity (a.u.)
AACTTAATTTGATAAGAAAATTTAGTGGAGTCACCACAAGCGGAGTCACCTAGTGCAG	44100 fluorescence intensity (a.u.)
CAGACCAGGAATGATTATCACATTGCAGTGAGTTCTCATTCGGAGTCACCTAGTGCAG	3670 fluorescence intensity (a.u.)
CAGCATGACAGATTGCCAGTTAGCCGGCTGATATAGTTCTCGGAGTCACCTAGTGCAG	29600 fluorescence intensity (a.u.)
AATAATCTAATCATCCTTATCCTCTCCTCTCCACCACTCACGGAGTCACCTAGTGCAG	5620 fluorescence intensity (a.u.)
AATTCTGTGATTAGCGGGTGCTTTTCGAATGGATGGCATGCGGAGTCACCTAGTGCAG	29200 fluorescence intensity (a.u.)
GTTTTATTAGGTAAGTGTTTGATTGGTTGTTAGCCACACTCGGAGTCACCTAGTGCAG	12800 fluorescence intensity (a.u.)
GGTCGCGGTCAATTTATATAATTAATTGCTAATTAATCACCGGAGTCACCTAGTGCAG	39700 fluorescence intensity (a.u.)
ATTAACACTTACACTTGATTAATTAAGTTTTAATCATTTTCGGAGTCACCTAGTGCAG	16900 fluorescence intensity (a.u.)
GGAAAGACAGATTGAAGAAGCTGGGGTTCAAACCCAGGATCGGAGTCACCTAGTGCAG	10300 fluorescence intensity (a.u.)
